Experiment [1] concerns the target GST-survivin, full-length (GST-SVN 1-142 aa) (UniProt O15392). As to the kind of experiment: pull-down; purified GST-survivin, truncations or DD70-71AA on glutathione beads incubated 2 h at 4 °C with in vitro translated (TNT-T7 reticulocyte) AURKA-Venus or AURKB; immunoblot; only the target purified.
Experiment [2] concerns the target GST-SVN(DD70-71AA) (UniProt O15392). Described as above.
Experiment [3] addresses GST-survivin, full-length (GST-SVN 1-142 aa) (UniProt O15392). As to the kind of experiment: pull-down; as a1, but extract of HeLa cells harvested 2 h after release from DMA (cytokinesis); only the target purified.
For experiment [4] the target is unchanged. As to the kind of experiment: pull-down; purified GST-survivin on glutathione beads incubated 2 h at 4 °C with extracts of HeLa cells synchronised with DMA (prometaphase), released into MG132 (metaphase) or 1 h into drug-free medium (anaphase-telophase); washes 50 mM Tris/HCl pH 8.0, 150 mM NaCl, 1% NP-40; immunoblot for AURKA; only the target purified. In general terms: A western blot detects proteins with antibodies after separation by electrophoresis.

By UniProt entry, the sequences of proteins in these tests, tags left out. Where a name states a change or a piece, a line headed by the entry shows the natural chain unless it says otherwise. Chains listed by the source or under a name are the forms on record and can include a tag or linker. Residues count along the entry.
UniProt O15392: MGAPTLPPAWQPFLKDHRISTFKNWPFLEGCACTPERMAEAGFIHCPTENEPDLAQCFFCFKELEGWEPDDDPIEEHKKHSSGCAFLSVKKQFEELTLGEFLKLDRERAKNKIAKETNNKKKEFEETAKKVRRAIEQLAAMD
GST-SVN 20-90 aa (BIR domain of survivin): residues 20-90 of O15392
GST-SVN 90-142 aa (C-terminus of survivin): residues 90-142 of O15392
GST-SVN(DD70-71AA) (O15392, form named): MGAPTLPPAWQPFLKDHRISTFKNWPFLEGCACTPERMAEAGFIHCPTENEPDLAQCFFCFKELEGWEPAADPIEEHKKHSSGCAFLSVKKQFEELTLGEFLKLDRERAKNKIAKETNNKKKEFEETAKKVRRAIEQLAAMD
UniProt Q96GD4: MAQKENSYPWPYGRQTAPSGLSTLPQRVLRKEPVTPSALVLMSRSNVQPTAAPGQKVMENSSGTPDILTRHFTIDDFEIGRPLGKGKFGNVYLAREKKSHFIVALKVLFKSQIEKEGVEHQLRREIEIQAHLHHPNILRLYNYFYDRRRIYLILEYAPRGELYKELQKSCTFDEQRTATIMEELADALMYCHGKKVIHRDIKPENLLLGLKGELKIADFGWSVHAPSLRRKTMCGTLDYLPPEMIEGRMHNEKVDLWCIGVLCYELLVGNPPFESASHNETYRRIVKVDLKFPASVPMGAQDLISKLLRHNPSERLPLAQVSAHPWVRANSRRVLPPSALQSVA

A further experiment has as its target survivin-GFP (UniProt O15392). As to the kind of experiment: co-IP; GFP-Trap beads with lysates of asynchronous HeLa stable lines expressing GFP or survivin-GFP; 10 mM Tris/HCl pH 7.5, 150 mM NaCl, 0.5 mM EDTA, 0.5% NP-40; 4 °C; immunoblot for AURKA.
The target of experiment [5] is GST-SVN 20-90 aa (BIR domain of survivin) (UniProt O15392). As to the kind of experiment: pull-down; purified GST-survivin truncations on glutathione beads incubated 2 h at 4 °C with asynchronous HeLa whole cell extract; immunoblot for AURKA; only the target purified.
In the next experiment the target is survivin T34E (UniProt O15392). As to the kind of experiment: pull-down; GST pulldown with survivin point mutants T34A/E and T48A/E (Fig. S2D,E); source of AURKA not told in what was shown.
The next experiment concerns the target survivin T48E (UniProt O15392). The description is as above.
The target of the next experiment is survivin T34A (UniProt O15392). Described as above.
The next experiment concerns the target survivin T48A (UniProt O15392). The experiment is described as above.
Experiment [6] addresses GST-SVN 20-90 aa (BIR domain of survivin) (UniProt O15392). As to the kind of experiment: pull-down; purified GST-survivin, truncations or DD70-71AA on glutathione beads incubated 2 h at 4 °C with in vitro translated (TNT-T7 reticulocyte) AURKA-Venus or AURKB; immunoblot; only the target purified.
In experiment [7] the target is GST-SVN 90-142 aa (C-terminus of survivin) (UniProt O15392). The experiment is described as above.
Experiment [8] concerns the target GST-survivin, full-length (GST-SVN 1-142 aa) (UniProt O15392). Described as above. The source holds these as a separate data set.
Experiment [9] deals with GST-SVN(DD70-71AA) (UniProt O15392). Described as above. The source holds these as a separate data set.

This note sets out measurements from publication PMC13042919.

Like-named read-outs stand apart in the source and are kept apart here. These are yes or no findings as the source states them, for the method shown. Binding seen in cells or lysates may run through a third protein. Some entries that bind do so weakly or less than the wild type.

Consider “AURKB, in vitro translated (from UniProt Q96GD4 1-344) (enzyme)”, for which the results for the binding entry (in experiment [1]; with GST-SVN(DD70-71AA) [2]) were “binds” and “no binding”, respectively.

B1: aurora kinase A (AURKA), endogenous in HeLa cells (enzyme, UniProt O14965 1-403)
chain: MDRSKENCISGPVKATAPVGGPKRVLVTQQFPCQNPLPVNSGQAQRVLCPSNSSQRIPLQAQKLVSSHKPVQNQKQKQLQATSVPHPVSRPLNNTQKSKQPLPSAPENNPEEELASKQKNEESKKRQWALEDFEIGRPLGKGKFGNVYLAREKQSKFILALKVLFKAQLEKAGVEHQLRREVEIQSHLRHPNILRLYGYFHDATRVYLILEYAPLGTVYRELQKLSKFDEQRTATYITELANALSYCHSKRVIHRDIKPENLLLGSAGELKIADFGWSVHAPSSRRTTLCGTLDYLPPEMIEGRMHDEKVDLWSLGVLCYEFLVGKPPFEANTYQETYKRISRVEFTFPDFVTEGARDLISRLLKHNPSQRPMLREVLEHPWITANSSKPSNCQNKESASKQS
Take B1: the binding entry is recorded as “binds weakly” in [3], “binds” in [4], “binds” with survivin-GFP and “binds” in [5].

B2: AURKA-Venus, in vitro translated (enzyme, UniProt O14965 1-403)
chain: MDRSKENCISGPVKATAPVGGPKRVLVTQQFPCQNPLPVNSGQAQRVLCPSNSSQRIPLQAQKLVSSHKPVQNQKQKQLQATSVPHPVSRPLNNTQKSKQPLPSAPENNPEEELASKQKNEESKKRQWALEDFEIGRPLGKGKFGNVYLAREKQSKFILALKVLFKAQLEKAGVEHQLRREVEIQSHLRHPNILRLYGYFHDATRVYLILEYAPLGTVYRELQKLSKFDEQRTATYITELANALSYCHSKRVIHRDIKPENLLLGSAGELKIADFGWSVHAPSSRRTTLCGTLDYLPPEMIEGRMHDEKVDLWSLGVLCYEFLVGKPPFEANTYQETYKRISRVEFTFPDFVTEGARDLISRLLKHNPSQRPMLREVLEHPWITANSSKPSNCQNKESASKQS
Regarding B2, the binding result is on record as “binds” with survivin T34E; “binds” with survivin T48E; “binds” in the experiment with survivin T34A; “binds” with survivin T48A; “binds” in [6]; “no binding” in experiment [7]. The binding entry (in experiment [8]; with GST-SVN(DD70-71AA) [9]) was “binds” in each case.
